Source: the RNAGym collection of RNA variant scans (doi:10.1073/pnas.2313332121)
This sample is rich in variants without activity.

B1: TPR 5TU (parent)
chain: GGAUCUUCUCGAUCUAACAAAAAAGACAAAUCUGCCACAAAGCUUGAGAGCAUCUUCGGAUGCAGAGGCGGCAGCCUUCGGUGGCGCGAUAGCGCCAACGUUCUCAACUAUGACACGCAAAACGCGUGCUCCGUUGAAUGGAGUUUAUCAUG

Variants of: B1
Test: polymerase ribozyme fitness, log enrichment relative to wild type (log ratio); higher = more active; in vitro selection for triplet polymerase activity
Outline: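 PCR was used to build mutant libraries for each subunit of a heterodimeric triplet polymerase ribozyme, which were then transcribed. A single in vitro selection round, in triplicate, used a frozen incubation at −7 °C and recovered extended constructs by gel excision, streptavidin beads and RT-PCR. Fitness is the logarithm of genotype enrichment relative to wild-type enrichment, averaged over replicates with inverse-variance weights. The logarithm is base 2, and after Illumina sequencing only genotypes with ≥10 input reads and ≥1 read per output were kept.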

Variant | polymerase ribozyme fitness (log ratio)
GGCUCUUCUCGAUCUAACAAAAUAGACAAAUCUGCCACAAAGCACGAGAGCAUCUUCGGAUGCAGAGGCGGCAGCCUUCGGUGGCGCGAUAGCGUCAACGUUCUGCACUAUGACACGCAAAAUGCGUGCUCCGUUGGAUGGAGUUUAUCAUG | ≤ -4.2
GGCUCUUCUCGAUCUAACAAAAAAGACAAAUCUGCCACAAAGCUUGAGAGCAUCUUCGGAUGCAGAGGCGGCAGCCUUCGGUGGCGCGAUAGCGCCUACGUUCUCAACUAUGACACGCAAAACGCGUGCUCCGUGGAAUCGAGUUUAUCAUG | ≤ -4.2
GGCUCUUCUGGAUCUAACAAAAAAGCCAAAUCUGCCACAAAGCUUGGGAGCAUCUUCGGAUGCAGAGGCGGCAGCCCUCGGUGGUGCGAUAGCGCCAACGUUCUCAACUAUGACACACCAAACGCGUGCUCCGUUGAAUGGAGUUUAUCAUG | ≤ -4.2
GGCUCUUCUCGAUCUAACAAAAAAGACAAAUCUGCCACAAAGCUUGAGAGCAUCUUCAGAUGCAGAGGCGGAAGCCUUCGAUGGCGCGAUGGCGCCAACGUUCUCAACUAUGACACGCAAAACGCGUGCUCCGUUGAAUGGAGUUUAUCAUG | ≤ -4.2
GGCUCUUCUCGAUCUAACAAAAAAGACAAAUCUGCCACAAAGUUUGAGAGCAACUUCGGAGGCAGAGGCGGCAGCCUUCGGUGGCGCGAUAGCGCCAACGGUCUCAACUAUGACACGCAAAACGCGUGCUCCGUUGAAAGGAGUUUAUCAUG | ≤ -4.2
GGCUCUUCUCGAUCUAACAAAAAAGACAAAUCUGCCACAAAGCUUGAGAGCCUCAUAGGAUGCAGAGGCGGCAGCCUUCGAUGGCGCGAUAGCCCCAACGUUCUCAACUAUGACACGCAAAACGCGUGCUCCGUUGAAUGGAGUUUAUCAUG | -4.03
GGCUCUUCUCGAUCUAACAAAAAGGUCAAAUCUGCCACAAAGCUUGAGAGCAUCUUCGGAUGCAGUCGCGGCAGCCUUCGGUGGCGCGAUAGCGCCAACGUUCGCAACUAUGACACGCAAAACGCGUGCUCCGUUGAAUGGAGUUUAUCGUG | ≤ -4.2
GGCACUUCUCGAUCUAACAAAAAAGACAAAUCUGCCACAAAGCUUGAGAGCAUCUUCGGAUGCAGAGGCGGCAGCCUUCGGUGGCGCGAUAGCGCCAACGUUCUCAACUAUGACACGCAAGACGCGUGCUCCGUUGAAUGACGUUUAUCAUG | -4.03
GGCUCUUCUCGAUCUAAGAAAAAAGACAAAUCUGCCACAAAGCUUGAGAGCAUCUAAGGAUGCAGAGGCGGCAGCCUUCGGUGGCGCGAUAGGGCCAACGUUCUCAACUAUGACACGCAAAACGCGUGCUCCGUUGAAUGGAGUUGAUCAUG | ≤ -4.2
GGCUCUUCUCGAUCUAACAAAAAAGACAAAUCUGCCACAAACCUUGAGAGCAUCUUCGGAUGCAGAGGCGGCAGCCUUCGGUGGCGCGAUAGCGCCAACGUUCUCAACUAUGACACGCAAAGCGCGUGCUCUGUUGCAUGGAGUUUAUCAUG | ≤ -4.2
GGCUCUUCUCGAUCUAACAAAAAAGACAAAUCGGCCACCAAGCUUGAGAGCCUCUUCGGAUGCAGAGGCGGCAGCCUUCGGUGGCGCGAUAGCGCCAACGUUCUCAACUGUGACACGCAAAACGCGUGCUCCGUUGAAUGGAGUUUAUCAUG | ≤ -4.2
GGCUCUUCUCGAUCUUACAAAAAAGACACAUCUGCCACAAAGCUUGAGAGCAUCUUCGGAUGCAGAGGCGGCAGCCUUCGGUGACGCGAUAGCGCCAACGUUCUCAACUAUGACACGCAAAACGCGUGCUCCCUUGAAUGGAGUUUAUCAUG | ≤ -4.2
GGCUCUUUUCGAUCUAGCAAAAAAGACGGAUCUGCCACAAAGCUUGAGAGCAUCUUCGGAUGCAGAGGCGGCACCCUUCGGAGGCGCGAUAGCGCAAACGUUCUCAACUAUGACGCGCAAAACCCGUGCUCCGUUGAAUGAAGUUUAUCAUG | ≤ -4.2
GGCUCUUCUCGAUCUCACAAAAAAGACAAAUCUGCCACAAAGCUUGAGAGCAUCUUCAGAUGCAGAGGCGGCAGCCUUCGGUGGCGCGAUCGCGCCAACGUUCUCAACUAUGACACGCAAAACGCGUGCUCCGUUGAAUGGAGUUUAUCAUG | ≤ -4.2
GGCUCUUCUCGUUCUAACAAAAAAGACAAAUCUGCCACAAAGCUUGAGAGCAUCAUCGGAUGCAGAGGCGGCAGAAUUCGGUGGCGCGAUAGCGCCAACGUUCUUAACUAUGACACGCAAAACGCGUGCUUCGUUGAAUGGAGUUUAUCAUG | ≤ -4.2
GGCUCUGCUCGAUCUAACAAAAAAGACAAAUCUGCCACAAAGCUUGAGAGCAUCUUCGGAUGCAGAGGCGGCAGCCUUCGGUGGCGUGAUAGGGCCAGCUUUCUCAACUAUGACACGCACAACGCGUGCUCCGUUGAAUGGAGUUUAACAGG | ≤ -4.2
GGCUCUUCUCGAUCUAACAAAAAAGACAAAUGUGCCACAAAGCUUGAGACCAUCUUCAGAUGCAGAGGCGGCAGCCUUCGGUGGAGCGCGAGCGCCAACGUUCUCAACUAUGACACGCAAAACGCGUGCUCCGUUGAAUGCAGUUUAUCAUG | ≤ -4.2
GGCUCUUCUCGGUCUAACAAAAAACACAAAUCUGCCACAAAGCUUGAGAGCCUCUUCGGAUGCAGAGGCGGCAGCCUUCGGUGGCGCGAUAGUGCCAACGUUCUCAACUAUGACAAGCAAAACGCGUGCUCCGUUGAAUGGAGUUUAUCAUG | -3.91
GGCUCUUCUCGAUCUAUCAAAAAAGUCAAAUCUGCCACAAAGCUUGAGAGCAUAUUCGGAUGCAGAGGCGGCAGUCUUCGGUGGCGCGAUAGUGCCAACGUUGUCAACUAUGACACGCAAAACGCGUGCUCCGUUGAAUGGACUUUAUCAUG | ≤ -4.2
